Experimental data: publication PMC5892938
Some of the results follow. At the low end of the ranking the order means little.

target: GST-SBP-SLBP (stem-loop binding protein) (UniProt Q14493); assay: targeted RNA Bind-n-Seq; conditions: RBNS binding buffer: 25 mM Tris pH 7.5, 150 mM KCl, 3 mM MgCl2, 0.1% Tween, 0.5 mg/mL BSA, 1 mM DTT; 27 nM protein, 750 pM RNA pool; temperature not stated; high values mean tight binding;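 also: DESeq read counts versus GST-SBP nonspecific binding control pulldown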

Sequence	binding signal (log2 fold change)
GGUCACGUCUCAAUCAACUCACAAGAGGGGGGGAAAACCCCUUUGCCCUCCGUAUCAACAGCUCGCAGUCAAG	0.416
GGUCACGUCUCAAUCAACUCAUCAGAGGGGGGGAAAACCCCUUUACCCUCAAUUUCAACAGCUCGCAGUCAAG	-0.0652
GGUCACGUCUCAAUCAACUCUUCCUCCAGGGAAAACCCUGGUAAAUUCAACAGCUCGCAGUCAAG	0.015
GGUCACGUCUCAAUCAACUCUUUUCCCAGGGAAAGCCCUGGCUAACUCAACAGCUCGCAGUCAAG	-0.216
GGUCACGUCUCAAUCAACUCUAUCUCAGGAGUUUCCUCCUGUUAUUUCAACAGCUCGCAGUCAAG	-0.145
GGUCACGUCUCAAUCAACUCAACGCCAGGAGUUUCCUCCUGUUUUUUCAACAGCUCGCAGUCAAG	0.0306
GGUCACGUCUCAAUCAACUCAACUCCCAGGGAAAACCCUGGUUAAUUCAACAGCUCGCAGUCAAG	0.246
GGUCACGUCUCAAUCAACUCAUCUCCAGGAGUUUACUCCUGUAUACUCAACAGCUCGCAGUCAAG	0.156
GGUCACGUCUCAAUCAACUCUAUUUCCAGGGAAAACCCUGGCUAUUUCAACAGCUCGCAGUCAAG	0.059
GGUCACGUCUCAAUCAACUCAUCCCCCAGGGAAAACCCUGGUUUACUCAACAGCUCGCAGUCAAG	-0.178
GGUCACGUCUCAAUCAACUCAACUUCAGGAGUUUGCUCCUGCUAUCUCAACAGCUCGCAGUCAAG	-0.0238
GGUCACGUCUCAAUCAACUCAUUUUCAGGAGUUUACUCCUGUAUAUUCAACAGCUCGCAGUCAAG	-0.084
GGUCACGUCUCAAUCAACUCUUUUCCAGGAGUUUACUCCUGCUUUUUCAACAGCUCGCAGUCAAG	0.0197
GGUCACGUCUCAAUCAACUCUUUCCCCAGGGAAAUCCCUGGCAAUUUCAACAGCUCGCAGUCAAG	-0.0795
GGUCACGUCUCAAUCAACUCAGUUUCAGGAGUUUUCUCCUGCUUUUUCAACAGCUCGCAGUCAAG	-0.0434
GGUCACGUCUCAAUCAACUCAGUCCCCAGGGAAAGCCCUGGCAUUUUCAACAGCUCGCAGUCAAG	-0.459
GGUCACGUCUCAAUCAACUCCACAGAGGGGGGGAAAACCCCUUUGCCCUCCAAUUCAACAGCUCGCAGUCAAG	-0.0165
GGUCACGUCUCAAUCAACUCUUUCUCAGGAGUUUCCUCCUGCAAACUCAACAGCUCGCAGUCAAG	0.000456
GGUCACGUCUCAAUCAACUCCUUAGAGGGGGGGAAAACCCCUUUGCCCUCACAAUCAACAGCUCGCAGUCAAG	0.226
GGUCACGUCUCAAUCAACUCAAUUUCAGGAGUUUACUCCUGUUAAUUCAACAGCUCGCAGUCAAG	0.103
GGUCACGUCUCAAUCAACUCAUUUGCAGGAGUUUUCUCCUGGUAUCUCAACAGCUCGCAGUCAAG	-0.0839
GGUCACGUCUCAAUCAACUCUAACGAGGGGGGGAAAACCCCUUUACCCUCAUAUUCAACAGCUCGCAGUCAAG	0.263
GGUCACGUCUCAAUCAACUCAAUCCCAGGAGUUUUCUCCUGCUUUCUCAACAGCUCGCAGUCAAG	0.247
GGUCACGUCUCAAUCAACUCUUUCUCCAGGGAAAGCCCUGGUUUACUCAACAGCUCGCAGUCAAG	0.057
GGUCACGUCUCAAUCAACUCAUUCCCAGGAGUUUCCUCCUGCUUACUCAACAGCUCGCAGUCAAG	0.0267

Sequence	binding signal (log2 fold change)
GGUCACGUCUCAAUCAACUCUUUCUCCAGGGAAAGCCCUGGCAAAUUCAACAGCUCGCAGUCAAG	0.146
GGUCACGUCUCAAUCAACUCAUCCUCAGGAGUUUACUCCUGUUAUCUCAACAGCUCGCAGUCAAG	-0.171
GGUCACGUCUCAAUCAACUCAUCUCCCAGGGAAACCCCUGGUUAACUCAACAGCUCGCAGUCAAG	0.13
GGUCACGUCUCAAUCAACUCAUCGUCAGGAGUUUACUCCUGUUAUCUCAACAGCUCGCAGUCAAG	-0.0175
GGUCACGUCUCAAUCAACUCGUCUUCAGGAGUUUUCUCCUGUUAAUUCAACAGCUCGCAGUCAAG	-0.251
GGUCACGUCUCAAUCAACUCUAUUCCCAGGGAAAGCCCUGGCAAAUUCAACAGCUCGCAGUCAAG	-0.1
GGUCACGUCUCAAUCAACUCAACUCCCAGGGAAAUCCCUGGCUAUUUCAACAGCUCGCAGUCAAG	0.0117
GGUCACGUCUCAAUCAACUCAAACGAGGGGGGGAAAACCCCUUUACCCUCAUCUUCAACAGCUCGCAGUCAAG	0.145
GGUCACGUCUCAAUCAACUCCUCGGAGGGGGGGAAAACCCCUUUACCCUCACAUUCAACAGCUCGCAGUCAAG	0.424
GGUCACGUCUCAAUCAACUCCUACGAGGGGGGGAAAACCCCUUUGCCCUCAAUUUCAACAGCUCGCAGUCAAG	-0.294
GGUCACGUCUCAAUCAACUCAUCCGAGGGGGGGAAAACCCCUUUACCCUCACCAUCAACAGCUCGCAGUCAAG	0.0648
GGUCACGUCUCAAUCAACUCUUCGUCAGGAGUUUCCUCCUGUAAUUUCAACAGCUCGCAGUCAAG	0.00832
GGUCACGUCUCAAUCAACUCAAUCCCCAGGGAAAGCCCUGGUAUUCUCAACAGCUCGCAGUCAAG	0.378
GGUCACGUCUCAAUCAACUCUACUUCAGGAGUUUUCUCCUGUAUUUUCAACAGCUCGCAGUCAAG	0.0968
GGUCACGUCUCAAUCAACUCAUCGUCCAGGGAAACCCCUGGUUAAUUCAACAGCUCGCAGUCAAG	-0.0853
GGUCACGUCUCAAUCAACUCCUACGAGGGGGGGAAAACCCCUUUACCCUCUAUCUCAACAGCUCGCAGUCAAG	-0.00918
GGUCACGUCUCAAUCAACUCAUUUUCCAGGGAAAACCCUGGUUAUCUCAACAGCUCGCAGUCAAG	-0.177
GGUCACGUCUCAAUCAACUCAACUCCAGGAGUUUCCUCCUGCAUUCUCAACAGCUCGCAGUCAAG	0.167
GGUCACGUCUCAAUCAACUCAUCCGCAGGAGUUUCCUCCUGGUAUUUCAACAGCUCGCAGUCAAG	0.483
GGUCACGUCUCAAUCAACUCAACUUCCAGGGAAAACCCUGGCUAUCUCAACAGCUCGCAGUCAAG	0.0148
GGUCACGUCUCAAUCAACUCUUCUCCCAGGGAAAUCCCUGGUAUUUUCAACAGCUCGCAGUCAAG	-0.378
GGUCACGUCUCAAUCAACUCUACAGAGGGGGGGAAAACCCCUUUACCCUCAUCAUCAACAGCUCGCAGUCAAG	-0.245
GGUCACGUCUCAAUCAACUCUUCGUCCAGGGAAAGCCCUGGCAAUUUCAACAGCUCGCAGUCAAG	-0.252
GGUCACGUCUCAAUCAACUCAUCGCCAGGAGUUUCCUCCUGCUAUUUCAACAGCUCGCAGUCAAG	0.0126
GGUCACGUCUCAAUCAACUCAUUUCCAGGAGUUUACUCCUGUUUAUUCAACAGCUCGCAGUCAAG	0.0969

Sequence	binding signal (log2 fold change)
GGUCACGUCUCAAUCAACUCUACUCCCAGGGAAACCCCUGGCUAACUCAACAGCUCGCAGUCAAG	0.0226
GGUCACGUCUCAAUCAACUCAAUUCCAGGAGUUUCCUCCUGCUUAUUCAACAGCUCGCAGUCAAG	0.0231
GGUCACGUCUCAAUCAACUCAAUCCCCAGGGAAAGCCCUGGUAUACUCAACAGCUCGCAGUCAAG	-0.061
GGUCACGUCUCAAUCAACUCUUCUCCCAGGGAAAACCCUGGUAAUUUCAACAGCUCGCAGUCAAG	-0.0582
GGUCACGUCUCAAUCAACUCAAGUCCAGGAGUUUACUCCUGUAAUUUCAACAGCUCGCAGUCAAG	0.0544
GGUCACGUCUCAAUCAACUCUUUCUCCAGGGAAAUCCCUGGUAAUCUCAACAGCUCGCAGUCAAG	-0.0514
GGUCACGUCUCAAUCAACUCAACUCCCAGGGAAAGCCCUGGUAUAUUCAACAGCUCGCAGUCAAG	-0.289
GGUCACGUCUCAAUCAACUCAAUGGAGGGGGGGAAAACCCCUUUACCCUCAUAAUCAACAGCUCGCAGUCAAG	0.129
GGUCACGUCUCAAUCAACUCAUUUCCAGGAGUUUCCUCCUGUUAUCUCAACAGCUCGCAGUCAAG	-0.0243
GGUCACGUCUCAAUCAACUCAUCCUCAGGAGUUUGCUCCUGCUUUCUCAACAGCUCGCAGUCAAG	0.0403
GGUCACGUCUCAAUCAACUCAAUUCCAGGAGUUUACUCCUGCAUUUUCAACAGCUCGCAGUCAAG	-0.0361
GGUCACGUCUCAAUCAACUCUAUUUCAGGAGUUUACUCCUGUAUAUUCAACAGCUCGCAGUCAAG	-0.0116
GGUCACGUCUCAAUCAACUCUCUAGAGGGGGGGAAAACCCCUUUACCCUCCGUUUCAACAGCUCGCAGUCAAG	-0.267
GGUCACGUCUCAAUCAACUCAAACGAGGGGGGGAAAACCCCUUUGCCCUCAAUCUCAACAGCUCGCAGUCAAG	-0.247
GGUCACGUCUCAAUCAACUCUUCCCCAGGAGUUUCCUCCUGCUAUUUCAACAGCUCGCAGUCAAG	0.139
GGUCACGUCUCAAUCAACUCUAUUCCCAGGGAAAUCCCUGGUAAAUUCAACAGCUCGCAGUCAAG	-0.0186
GGUCACGUCUCAAUCAACUCUUUCUCAGGAGUUUCCUCCUGUUUAUUCAACAGCUCGCAGUCAAG	-0.0336
GGUCACGUCUCAAUCAACUCAAAAGAGGGGGGGAAAACCCCUUUACCCUCCGCAUCAACAGCUCGCAGUCAAG	-0.163
GGUCACGUCUCAAUCAACUCUACUCCAGGAGUUUUCUCCUGCAUACUCAACAGCUCGCAGUCAAG	-0.142
GGUCACGUCUCAAUCAACUCUUCCUCCAGGGAAAUCCCUGGUUAACUCAACAGCUCGCAGUCAAG	-0.132
GGUCACGUCUCAAUCAACUCAUCCUCAGGAGUUUUCUCCUGUUUUCUCAACAGCUCGCAGUCAAG	0.197
GGUCACGUCUCAAUCAACUCAUCCUCCAGGGAAAGCCCUGGCAAUCUCAACAGCUCGCAGUCAAG	0.184
GGUCACGUCUCAAUCAACUCUAUCGCAGGAGUUUCCUCCUGGUAUUUCAACAGCUCGCAGUCAAG	-0.201
GGUCACGUCUCAAUCAACUCAUCUCCAGGAGUUUCCUCCUGUAAUCUCAACAGCUCGCAGUCAAG	0.137
